Earlier results as cited in patent US20260248747A1, “PHYSICAL PERFORMANCE AID” (aXichem AB, priority 2023, published 2026).

Conditions: both doses: 0.625 mg and 2.5 mg; cited from earlier work

Question: With phenylcapsaicyn as the substance, how does the “safety range according to EFSA expert panel” value read?
Answer: The value was “considered in the safety range”.
